# Experimental data reported in PMC4336329 (PLoS ONE, 2015).
# Hit rate of the full screen: of about 310,000 compounds, about 14,000 (4.5%) showed an effect of 50% or more. Effects have a minus sign here. This is one part of the list.
# Target: human ether-à-go-go-related gene (hERG) potassium channel (human, UniProt Q12809)
# Test: primary screen, population patch clamp on CHO cells stably expressing hERG
# 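Note: peak tail current of the secondary pulse compared with the same well before compound.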
# human ether-à-go-go-related gene (hERG) potassium channel, sequence (Q12809 whole entry, looked up): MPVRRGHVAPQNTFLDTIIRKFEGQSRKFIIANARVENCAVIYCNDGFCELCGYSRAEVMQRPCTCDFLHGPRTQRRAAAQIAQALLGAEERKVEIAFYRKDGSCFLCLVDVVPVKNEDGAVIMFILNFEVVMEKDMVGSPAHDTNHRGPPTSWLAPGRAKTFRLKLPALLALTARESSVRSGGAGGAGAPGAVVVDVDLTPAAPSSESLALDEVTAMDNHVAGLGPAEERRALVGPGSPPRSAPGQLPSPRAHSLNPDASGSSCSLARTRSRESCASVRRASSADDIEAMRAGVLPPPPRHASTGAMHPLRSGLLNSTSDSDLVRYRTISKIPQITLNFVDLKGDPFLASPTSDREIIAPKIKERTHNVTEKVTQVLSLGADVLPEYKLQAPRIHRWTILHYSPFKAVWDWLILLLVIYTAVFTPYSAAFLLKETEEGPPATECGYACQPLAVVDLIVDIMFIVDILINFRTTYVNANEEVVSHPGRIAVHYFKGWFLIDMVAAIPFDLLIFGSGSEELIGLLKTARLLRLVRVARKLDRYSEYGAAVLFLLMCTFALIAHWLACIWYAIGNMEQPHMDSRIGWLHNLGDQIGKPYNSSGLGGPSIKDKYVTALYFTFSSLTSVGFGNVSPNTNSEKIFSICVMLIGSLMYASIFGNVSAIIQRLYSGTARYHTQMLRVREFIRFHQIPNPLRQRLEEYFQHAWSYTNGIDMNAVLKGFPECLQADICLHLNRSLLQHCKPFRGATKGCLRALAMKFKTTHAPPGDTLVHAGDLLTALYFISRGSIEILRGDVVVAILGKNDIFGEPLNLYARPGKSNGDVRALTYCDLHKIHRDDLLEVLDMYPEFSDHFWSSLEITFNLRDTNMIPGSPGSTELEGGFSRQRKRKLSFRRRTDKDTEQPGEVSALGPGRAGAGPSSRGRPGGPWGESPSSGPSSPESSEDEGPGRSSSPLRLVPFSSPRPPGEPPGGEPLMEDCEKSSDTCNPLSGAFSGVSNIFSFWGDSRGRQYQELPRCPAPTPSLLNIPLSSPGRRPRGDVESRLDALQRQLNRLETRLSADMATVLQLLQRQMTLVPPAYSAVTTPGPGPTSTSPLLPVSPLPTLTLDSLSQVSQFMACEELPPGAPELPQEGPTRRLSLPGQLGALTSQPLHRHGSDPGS
row,SMILES,"hERG current change (%, negative = inhibition) at 10uM [%]"
1,O=C(COc1ccccc1)Nc1nc2cc3c(cc2s1)OCO3,15.4
2,Cc1ccc(N(Cc2cc3ccccc3[nH]c2=O)S(C)(=O)=O)cc1,11.3
3,O=C(Cc1ccc(S(=O)(=O)N2CCOCC2)s1)Nc1ccccc1N1CCOCC1,-3.36
4,COc1ccc(S(=O)(=O)N2CCOC23CCN(S(=O)(=O)c2c(C)cc(C)cc2C)CC3)cc1,-7.82
5,COc1ccc(NC(=O)c2c[nH]n3c(=O)cc(C4CCN(C(=O)OC(C)(C)C)CC4)nc23)cc1Cl,22.4
6,Cc1snc(SCC(=O)c2ccc(Cl)cc2)c1C#N,2.99
7,Cc1cc2c(NC3CCCCC3)ncnc2s1.Cl,4.18
8,CCN1C(=NCc2ccc(OC)cc2)N[C@@H](c2ccccc2)C(C(=O)OC)=C1C,-28.9
9,COc1cc2c(cc1NC(=O)C(C)OC(=O)/C=C/c1ccc(OC(F)F)cc1)oc1ccccc12 (stereo not drawn),7.07
10,Cc1ccnc(NC(=O)c2cc(F)c(F)cc2Cl)n1,17.8
11,COc1ccc(C2NCCO2)cc1OC (stereo not drawn),6.18
12,O=C(CSc1cccc[n+]1[O-])Nc1cccc(S(=O)(=O)NC2=NCCCCC2)c1,54.8
13,O=C(COC(=O)CSc1ccc(F)cc1)NC1CCCCCC1,-3.11
14,Cn1nccc1NC(=O)Nc1cccc(Cl)c1,14.3
15,COc1ccc(OC)c(S(=O)(=O)N2CCC(C(=O)Nc3cccc(C(F)(F)F)c3)CC2)c1,-16.6
16,CC1(C)C(=O)NCCN1C(=O)CCC(=O)O,-5.78
17,COc1ccc(CCCc2nnc(SCC(=O)NN)o2)c(C)c1,11.9
18,C=CCNC(=S)NNc1nc(Nc2ccccc2)nc(N2CCCCC2)n1,10.3
19,Cc1c(C)n2c(SCC(=O)N3CCN(c4ccccc4)CC3)nnc2[nH]c1=O,-4.95
20,Cc1cccc(N2CCN(S(=O)(=O)c3cc4c(cc3Cl)NC(=O)CO4)CC2)c1C,12.9
21,COc1cccc(CNS(=O)(=O)c2cc3c4c(c2)CCC(=O)N4CCC3)c1,-7.33
22,CCOC(=O)CC1C(=O)NCCN1Cc1cccc(C(F)(F)F)c1 (stereo not drawn),10.3
23,CCOC(=O)CN(C(=O)COc1nc(-c2ccccc2)cc(C)c1C#N)c1cccc(OC)c1,-2.82

row,SMILES,"hERG current change (%, negative = inhibition) at 10uM [%]"
1,CNC(=S)N1CCN(c2ccccn2)CC1,-9.16
2,Cc1cc(S(=O)(=O)N(Cc2ccc3c(c2)OCO3)CC2CCCO2)ccc1-n1cnnn1 (stereo not drawn),-21.9
3,Cc1ccc(S(=O)(=O)c2nc(S(C)(=O)=O)sc2N2CCOCC2)cc1,-4.32
4,O=C(Cn1nc(-c2ccccc2)ccc1=O)Nc1cccc(NC(=O)c2ccccn2)c1,-0.657
5,COc1ccccc1C(=O)COC(=O)/C(=C/c1ccccc1)NC(C)=O,2.19
6,CC(NC(=O)C1CCN(S(=O)(=O)N2CCCCCC2)CC1)c1ccccc1 (stereo not drawn),-13
7,C=CCN=C(NC#N)SCC(=O)NCc1ccccc1,8.47
8,CCOc1cccc(C2/C(=C(/O)c3ccc4c(c3)CC(C)O4)C(=O)C(=O)N2CCCn2ccnc2)c1 (stereo not drawn),24.6
9,O=C(COc1ccccc1Cl)Nc1ccc(S(=O)(=O)N2CCOCC2)cc1,15.4
10,CC(=O)Nc1sc(C)c(C)c1C(=O)OCC(=O)N(CC(C)C)C1CCS(=O)(=O)C1 (stereo not drawn),-16.3
11,O=C(NCc1ccccc1)C(c1ccco1)N(C(=O)c1cnccn1)c1ccc(F)cc1 (stereo not drawn),10.5
12,CC(CCc1ccccc1)NC(=O)CSc1nnnn1C (stereo not drawn),1.89
13,COc1ccc(CC(=O)NCCc2ccc(OC)c(OC)c2)cc1,10.4
14,COc1cccc(N(CC(=O)Nc2ccc3c(c2)OCO3)S(=O)(=O)c2ccccc2)c1,8.29
15,COc1ccc(OC2C(=O)N(c3ccc(F)cc3)C2c2ccc(OC)c(OC)c2)cc1 (stereo not drawn),1.64
16,Clc1ccc(-c2nc3ccccn3c2CN2CCCCC2)cc1,-19.9
17,CC(=O)Oc1ccccc1C(=O)O,3.63
18,Cc1ncc(C[n+]2csc(CCO)c2C)c(N)n1.[Cl-],15.4
19,Cc1ccc(NC(=O)Cn2nnc(C(=O)Nc3ccc(F)c(Cl)c3)c2N)cc1,6.89
20,O=C(c1ccco1)N1CCN(Cc2nnc(-c3cccc(Br)c3)o2)CC1,-62.2
21,CCN(CC(=O)Nc1ccccc1OC)C(=O)C1CCCC1,0.547
22,CN(C)C(Cc1ccc(C#N)cc1)C(=O)c1ccccc1 (stereo not drawn),-6.72
